PMC6919601, “Identification of Plasmodium dipeptidyl aminopeptidase allosteric inhibitors by high throughput screening” (PLoS ONE, 2019)
Out of some 110,000 compounds screened, about 230 (0.21%) showed an effect of 50% or more. The list shows a part of the results.
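Further: 30 min substrate incubation versus DMSO and 10 µM JCP410 controls.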

Each compound was assayed against DPAP1 (Plasmodium falciparum, UniProt Q8IIJ9) (assay: primary screen, percent inhibition; read by cleavage of a fluorogenic dipeptide substrate; higher = more effect of the substance).
DPAP1, sequence (Q8IIJ9 whole entry, looked up): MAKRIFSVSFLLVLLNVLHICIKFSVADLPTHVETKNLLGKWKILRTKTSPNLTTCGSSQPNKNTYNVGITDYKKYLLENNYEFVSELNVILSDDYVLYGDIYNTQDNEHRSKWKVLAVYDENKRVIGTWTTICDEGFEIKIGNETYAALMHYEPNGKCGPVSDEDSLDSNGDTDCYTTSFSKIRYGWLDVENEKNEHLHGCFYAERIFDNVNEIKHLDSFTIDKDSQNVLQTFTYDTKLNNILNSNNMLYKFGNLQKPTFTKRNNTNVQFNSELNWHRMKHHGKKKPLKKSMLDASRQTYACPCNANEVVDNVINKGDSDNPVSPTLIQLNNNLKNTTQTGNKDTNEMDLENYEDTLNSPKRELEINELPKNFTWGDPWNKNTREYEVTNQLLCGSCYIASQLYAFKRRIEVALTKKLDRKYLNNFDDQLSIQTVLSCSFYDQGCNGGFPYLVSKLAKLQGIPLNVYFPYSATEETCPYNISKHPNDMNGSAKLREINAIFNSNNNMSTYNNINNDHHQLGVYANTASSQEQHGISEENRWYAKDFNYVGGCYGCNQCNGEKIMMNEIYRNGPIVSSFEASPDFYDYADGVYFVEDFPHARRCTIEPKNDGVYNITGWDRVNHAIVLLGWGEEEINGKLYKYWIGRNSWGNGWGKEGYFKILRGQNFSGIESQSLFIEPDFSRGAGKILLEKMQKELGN
Set-up: species or system P. falciparum D10 trophozoite lysates; single well
For `O=C(Nc1nonc1-c1ccccc1)c1ccccc1F`, the “% Inhibition @ 10 uM” value was 2.29%.
`Cn1c(=O)c2c(nc(Cl)n2Cc2ccccc2Br)n(C)c1=O` was tested, and the “% Inhibition @ 10 uM” value was 4.86%.
In the case of `O=c1c2nccnc2nc(SCc2cc(=O)n3cc(Cl)ccc3n2)n1CCc1ccccc1`, the “% Inhibition @ 10 uM” value is reported as 9.61%.
With `C=C(C)Cn1c(NCCCN2CCOCC2)nc2c1c(=O)[nH]c(=O)n2C` the “% Inhibition @ 10 uM” value was 1.96%.
For `CN1CCC(N(C)C2CC(=O)N(c3ccccc3)C2=O)CC1` (stereo not drawn), the “% Inhibition @ 10 uM” value was 4.33%.
In the case of `Cc1ccccc1C(O)c1cccnc1` (stereo not drawn), the “% Inhibition @ 10 uM” value is reported as 2.01%.
With `CN(C)C(=O)N1CCCC(C(=O)NC2CCCCC2)C1` (stereo not drawn) the “% Inhibition @ 10 uM” value was -1.34%.
`Cn1c(=O)[nH]c(=O)c2c1nc(N1CCCCCC1)n2CCC#N` was tested, and the “% Inhibition @ 10 uM” value was 0.35%.
For `CCN1C(=O)N/C(=C/c2cn(CC(=O)O)c3ccccc23)C1=O`, the “% Inhibition @ 10 uM” value was -1.42%.
With `O=c1cc(O)nc(SCc2ccccc2)n1-c1ccc(F)cc1` the “% Inhibition @ 10 uM” value was -4.67%.
In the case of `CC1CN(Cc2cccs2)CC(C)O1` (stereo not drawn), the “% Inhibition @ 10 uM” value is reported as -3.27%.
`O=C(O)c1ccn(Cn2cnc3ccccc32)n1` was tested, and the “% Inhibition @ 10 uM” value was 4.94%.
With `Cc1nn(CC(=O)NCc2cccnc2)c(=O)c2nn(-c3ccccc3)c(C)c12` the “% Inhibition @ 10 uM” value was -4.38%.
With `O=C(CC1NC2CCCCC2NC1=O)Nc1ccc(Oc2ccccc2)cc1` (stereo not drawn) the “% Inhibition @ 10 uM” value was 2.64%.
With `Cc1ccc(NC(=O)c2cc(C(=O)Nc3ccc(C)c(C)c3)n(C)n2)cc1C` the “% Inhibition @ 10 uM” value was -0.0648%.
`CCOC(=O)c1cc2c(=O)n3ccccc3nc2n(C)/c1=N\C(=O)c1cc(OC)c(OC)c(OC)c1` was tested, and the “% Inhibition @ 10 uM” value was 0.457%.
In the case of `CC/N=C1/SC(CC(=O)Nc2ccc(C(F)(F)F)cc2)C(=O)N1CC` (stereo not drawn), the “% Inhibition @ 10 uM” value is reported as -17%.
With `COc1cccc(C(=O)C2=C(O)C(=O)N(c3ccccn3)C2c2cccc(Br)c2)c1` (stereo not drawn) the “% Inhibition @ 10 uM” value was -1.26%.
With `COc1ccc(CC(=O)Nc2sc3c(c2C(=O)Nc2ccccc2OC)CCC3)cc1` the “% Inhibition @ 10 uM” value was -8.92%.
For `Cc1nc(S)c(C#N)c(C)c1CC(=O)c1ccc(Br)cc1`, the “% Inhibition @ 10 uM” value was 3.92%.
With `CC(C)Cn1cc(C(=O)NC(C)c2ccc3c(c2)OCCO3)c2c3ccccc3n(C)c2c1=O` (stereo not drawn) the “% Inhibition @ 10 uM” value was -0.591%.
`COc1ccc(N(CC(=O)NC2CCCC2)S(=O)(=O)c2ccc(C)cc2)c(OC)c1` was tested, and the “% Inhibition @ 10 uM” value was -3.49%.
With `CCOc1ccc(CCNc2nc3ccccc3n3c(CC)nnc23)cc1OCC` the “% Inhibition @ 10 uM” value was -2.78%.
With `O=C(Nc1ccc(S(=O)(=O)N2CCCCCC2)cc1)c1cccs1` the “% Inhibition @ 10 uM” value was 2.38%.
`COc1ccc(CC(=O)Nc2nc3c(s2)C(=O)CC(C)(C)C3)cc1OC` was tested, and the “% Inhibition @ 10 uM” value was -15.4%.
In the case of `COC(=O)c1c(C)oc2ccc(OCc3cc(C)ccc3C)cc12`, the “% Inhibition @ 10 uM” value is reported as 6.22%.
For `O=C(Cn1cnc2c(nc3n2CCCCC3)c1=O)NCCN1CCOCC1`, the “% Inhibition @ 10 uM” value was 5.27%.
For `O=C(CCNC(=O)Cn1ccc2ccccc2c1=O)NCC1CCCC1c1ccccc1` (stereo not drawn), the “% Inhibition @ 10 uM” value was -5.17%.
In the case of `COc1nc(-c2ccc(C)cc2)ccc1-c1noc(-c2cccnc2)n1`, the “% Inhibition @ 10 uM” value is reported as -1.33%.
For `N#CC1=C(N)N(c2ccccc2)C2=C(C(=O)CCC2)C1c1cccs1` (stereo not drawn), the “% Inhibition @ 10 uM” value was 0.751%.
For `C=CCn1c(CNC(=O)CCC)nc2ccccc21`, the “% Inhibition @ 10 uM” value was 4.69%.
In the case of `O=S(=O)(NCC1OCCc2ccccc21)c1ccccc1` (stereo not drawn), the “% Inhibition @ 10 uM” value is reported as -0.902%.
With `N#Cc1c(NC(=O)CN2CCOCC2)sc2c1CCC2` the “% Inhibition @ 10 uM” value was -1.06%.
With `O=C1CN(c2ccc(Cl)cc2)C(=O)N1` the “% Inhibition @ 10 uM” value was -6.32%.
For `COc1ccc(/C=C2\N=C(c3ccc(C(C)(C)C)cc3)OC2=O)c(OC)c1OC`, the “% Inhibition @ 10 uM” value was -8.16%.
`C=CCOC(=O)C1=C(C)N=C(C)/C(=C(/O)OCC=C)C1c1ccc(O)c(OCC)c1` (stereo not drawn) was tested, and the “% Inhibition @ 10 uM” value was 1.52%.
For `NS(=O)(=O)c1ncn(Cc2ccccc2)n1`, the “% Inhibition @ 10 uM” value was 4.42%.
With `C(#Cc1ccccc1)CN1CCN(CC#Cc2ccccc2)CC1` the “% Inhibition @ 10 uM” value was -3.42%.
With `COc1ccccc1C(=O)Nc1c(C(=O)c2ccc(F)cc2)oc2ccccc12` the “% Inhibition @ 10 uM” value was 0.628%.
`O=c1/c(=C/c2ccccc2)sc2nc3ccccc3n12` was tested, and the “% Inhibition @ 10 uM” value was 1.55%.
With `COc1ccc(C2NC(=O)c3c(sc4c3CCN(C)C4)N2)cc1Br` (stereo not drawn) the “% Inhibition @ 10 uM” value was 2.02%.
`CCC(Sc1nc2nnc(C)c-2c(N)n1-c1cccc(C)c1)C(=O)N(CC)CC` (stereo not drawn) was tested, and the “% Inhibition @ 10 uM” value was -0.668%.
`CCC/N=c1\c(NC(=O)c2c(-c3ccccc3Cl)noc2C)c(O)oc2ccccc12` was tested, and the “% Inhibition @ 10 uM” value was -4.27%.
In the case of `CCOc1ccccc1NC1=C(Cl)C(=O)N(c2ccccc2C)C1=O`, the “% Inhibition @ 10 uM” value is reported as 2.08%.
With `OCc1nc(CO)n(Cc2ccccc2)n1` the “% Inhibition @ 10 uM” value was -1.45%.
`Cc1ccc(C(C#N)NC(=O)[C@H](CC(C)C)NC(=O)OCc2ccccc2)s1` (stereo partly drawn) was tested, and the “% Inhibition @ 10 uM” value was 0.174%.
For `CCC(C)n1c(=N)c(C(=O)NC(C)c2ccccc2)cc2c(=O)n3cc(C)ccc3nc21` (stereo not drawn), the “% Inhibition @ 10 uM” value was 3.6%.
`CC(C)(C)S(=O)(=O)c1ccsc1` was tested, and the “% Inhibition @ 10 uM” value was 3.34%.
`COc1ccc(/C(C)=N/OCc2nc3c4cnn(-c5ccc(C)cc5)c4ncn3n2)cc1OC` was tested, and the “% Inhibition @ 10 uM” value was -2.14%.
In the case of `O=C1CC(c2coc3ccccc3c2=O)Sc2ccccc2N1` (stereo not drawn), the “% Inhibition @ 10 uM” value is reported as -4.07%.
`CC1(C)CC2=Nc3ccccc3NC(c3ccccc3O)C2=C(O)C1` (stereo not drawn) was tested, and the “% Inhibition @ 10 uM” value was 0.634%.
In the case of `CCC1CCc2nc3sc(C(=O)Nc4cc(OC)c(OC)c(OC)c4)c(N)c3cc2C1` (stereo not drawn), the “% Inhibition @ 10 uM” value is reported as 4.85%.
With `CCOCCCNC(=O)CCCn1nc(C)c2c(C)n(-c3ccccc3)nc2c1=O` the “% Inhibition @ 10 uM” value was -2.87%.
With `COc1ccc(CNC(=O)Cn2nc(C)c3c(C)n(-c4ccc(C)cc4)nc3c2=O)c(OC)c1` the “% Inhibition @ 10 uM” value was 1.28%.
With `C=CCOc1ccc(/C=C2\C(=O)NC(C)=C2C(=O)OC)cc1OC` the “% Inhibition @ 10 uM” value was -0.597%.
`O=C(CCC(=O)N1Cc2ccccc2Oc2ncccc21)NCCc1cccs1` was tested, and the “% Inhibition @ 10 uM” value was 0.627%.
For `Cc1ccc(C2=CC(c3cccc(F)c3)NC(S)=N2)o1` (stereo not drawn), the “% Inhibition @ 10 uM” value was 0.0719%.
`CCCCc1ccc(-c2csc(N)c2C#N)cc1` was tested, and the “% Inhibition @ 10 uM” value was 5.87%.
For `COc1ccc(C(=O)Nc2ccccc2C(=O)NC2CCCCC2)cc1S(=O)(=O)N1CCCC1`, the “% Inhibition @ 10 uM” value was -2.63%.
With `c1csc(COc2ccccc2CNC2CCCCC2)c1` the “% Inhibition @ 10 uM” value was 1.63%.
In the case of `CCOc1cccc(CN2CCc3ccccc3C2)c1O`, the “% Inhibition @ 10 uM” value is reported as -4.75%.
For `CN(Cc1ccccc1)C(=O)CCC(=O)N(C)Cc1ccccc1`, the “% Inhibition @ 10 uM” value was -8.75%.
For `CCOc1ccc(CNC(=O)c2cc(O)nc3ccc(S(=O)(=O)N4CCCCC4C)cc23)cc1` (stereo not drawn), the “% Inhibition @ 10 uM” value was 0.387%.
